In PubChem BioAssay AID504339 (National Center for Advancing Translational Sciences (NCATS), 2011):
In all, about 390,000 compounds went through this assay and about 17,000 (4.4%) were called active. The inconclusive results got no clear call from the source; some entries with a clear call stand among them for comparison. Calls follow the shape of the dose curve; as a rule, active = well fitted inhibition curve with a large enough effect; inconclusive = small, poorly fitted or top-dose-only effect; inactive = no such curve, though single readings can be large or run the other way. Where the call is inconclusive, the potency comes from a doubtful curve fit.

Target: Lysine-specific demethylase 4A (Homo sapiens) (UniProt O75164)
Experiment: qHTS Assay for Inhibitors of JMJD2A-Tudor Domain; also: nearly all actives have a fitted effect of over 50% in size
Settings: AlphaScreen JMJD2A-Tudor / H3K4me3 peptide binding; series mostly up to 114 µM
Potency is read from the fitted curve at half-maximal effect; tags tell the direction and shape of the fitted curve.

UniProt O75164, sequence (O75164 whole entry, looked up, the tested form may be a part): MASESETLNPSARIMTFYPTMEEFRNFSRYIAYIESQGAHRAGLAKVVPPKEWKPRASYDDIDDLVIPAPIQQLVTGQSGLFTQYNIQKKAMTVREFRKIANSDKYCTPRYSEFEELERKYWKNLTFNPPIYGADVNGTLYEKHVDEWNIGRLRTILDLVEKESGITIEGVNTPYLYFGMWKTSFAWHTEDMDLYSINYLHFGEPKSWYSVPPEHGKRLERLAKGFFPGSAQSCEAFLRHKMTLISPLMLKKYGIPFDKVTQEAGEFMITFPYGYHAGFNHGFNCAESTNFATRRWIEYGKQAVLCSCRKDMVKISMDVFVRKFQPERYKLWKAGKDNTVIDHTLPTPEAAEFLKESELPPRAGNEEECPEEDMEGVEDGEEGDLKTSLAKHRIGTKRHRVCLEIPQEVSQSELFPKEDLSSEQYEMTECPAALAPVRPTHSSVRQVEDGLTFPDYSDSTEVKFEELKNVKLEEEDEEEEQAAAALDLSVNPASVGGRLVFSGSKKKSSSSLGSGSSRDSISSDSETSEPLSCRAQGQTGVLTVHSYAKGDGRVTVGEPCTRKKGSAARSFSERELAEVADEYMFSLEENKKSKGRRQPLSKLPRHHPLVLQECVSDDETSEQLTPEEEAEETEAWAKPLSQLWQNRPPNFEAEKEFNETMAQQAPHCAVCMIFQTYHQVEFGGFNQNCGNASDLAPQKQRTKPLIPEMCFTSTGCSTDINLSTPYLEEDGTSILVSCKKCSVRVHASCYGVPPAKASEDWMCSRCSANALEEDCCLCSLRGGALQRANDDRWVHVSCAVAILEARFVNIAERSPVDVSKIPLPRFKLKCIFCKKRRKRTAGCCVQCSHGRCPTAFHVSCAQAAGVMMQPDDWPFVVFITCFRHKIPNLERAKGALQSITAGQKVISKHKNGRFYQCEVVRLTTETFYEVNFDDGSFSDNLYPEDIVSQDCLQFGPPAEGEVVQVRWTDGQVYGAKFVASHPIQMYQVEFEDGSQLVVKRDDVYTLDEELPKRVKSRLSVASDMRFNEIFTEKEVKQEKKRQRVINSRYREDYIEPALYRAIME

SMILES | Potency
Cc1csc2nc(-c3ccc(NS(=O)(=O)c4cccc(F)c4)cc3)cn12 | inconclusive: 50.1 µM [inhibitor, partial curve]
CCOC(=O)c1c(NC(=O)C2CC(Cl)=CCC2C(=O)O)sc2c1CCCCC2 (centres undefined) | inconclusive: 89.1 µM [inhibitor, partial curve]
Cc1ccn(CCNC(=O)C2CCC(=O)N(CCc3ccc(Cl)cc3)C2)n1 (centres undefined) | inactive
CC1CCc2nn(CC(=O)Nc3ccc(F)cc3F)cc2C1 (centres undefined) | inactive
CC(=O)Nc1ccc(Nc2c3ccccc3nc3ccccc23)cc1 | inconclusive: 50.1 µM [inhibitor, partial curve]
CCOC(=O)CCC(NC(=O)c1cncc(O)c1)C(=O)OCC (centres undefined) | active: 44.7 µM
c1coc(CNc2ncnc3c2[nH]c2ccccc23)c1 | inconclusive: 79.4 µM [inhibitor, partial curve]
Cc1cc(C)n2nc(-c3ccsc3-n3c(C)ccc3C)cc2n1 | inconclusive: 44.7 µM [inhibitor, partial curve]
COc1cc(NS(=O)(=O)c2ccc(N/C=C(\C#N)c3nc4cc(Cl)ccc4o3)cc2)nc(OC)n1 | inconclusive: 50.1 µM [inhibitor, partial curve]
O=C(Nc1nc2ccccc2[nH]1)c1ccccc1OC(F)F | inconclusive: 2.82 µM [inhibitor, partial curve, poor fit]
CC1CCN(S(=O)(=O)c2cc(C(=O)NCc3ccc(N(C)C)cc3)n(C)c2)CC1 | active: 56.2 µM
C/C(=N\Nc1nc2ccccc2[nH]1)c1ccc(Cl)s1 | inconclusive: 79.4 µM [inhibitor, partial curve]
Cc1ccccc1CNC(=O)C1CCCN(c2nnc(C)c3c(C)n(-c4ccccc4)nc23)C1 (centres undefined) | inconclusive: 70.8 µM [inhibitor, partial curve]
CCOc1ccc(N=Nc2c(=O)[nH]n3c(=O)c4c([nH]c23)CCCC4)cc1 | inconclusive: 100 µM [inhibitor, partial curve]
COc1ccc(NC(=O)/C(C#N)=C/c2ccc(-c3ccc(Cl)c(C(=O)O)c3)o2)cc1 | inconclusive: 56.2 µM [inhibitor, partial curve]
S=C1NC2(CCCCC2)Cc2ccccc21 | inconclusive: 39.8 µM [inhibitor, full curve]
CCc1ccc(CNC(=O)c2cnc(N3CCCCC3)c3ccccc23)cc1 | inactive
Cc1nc2c3cc(F)ccc3n(Cc3ccc(F)cc3)c2s1 | inconclusive: 25.1 µM [inhibitor, single point]
CC(=O)NC(NC(=S)Nc1ccc(N=Nc2ccccc2)cc1)C(Cl)(Cl)Cl (centres undefined) | inconclusive: 14.1 µM [inhibitor, full curve, poor fit]
